In the supplement of paper PMC3334620:
In all, about 33,000 sequences were measured (“E-score (-0.5 to 0.5)”: median about -0.035, highest 2% from about 0.34 on). The list shows a part of the results.

Biological target: T1, Mot3 (UniProt P54785)
T1 sequence: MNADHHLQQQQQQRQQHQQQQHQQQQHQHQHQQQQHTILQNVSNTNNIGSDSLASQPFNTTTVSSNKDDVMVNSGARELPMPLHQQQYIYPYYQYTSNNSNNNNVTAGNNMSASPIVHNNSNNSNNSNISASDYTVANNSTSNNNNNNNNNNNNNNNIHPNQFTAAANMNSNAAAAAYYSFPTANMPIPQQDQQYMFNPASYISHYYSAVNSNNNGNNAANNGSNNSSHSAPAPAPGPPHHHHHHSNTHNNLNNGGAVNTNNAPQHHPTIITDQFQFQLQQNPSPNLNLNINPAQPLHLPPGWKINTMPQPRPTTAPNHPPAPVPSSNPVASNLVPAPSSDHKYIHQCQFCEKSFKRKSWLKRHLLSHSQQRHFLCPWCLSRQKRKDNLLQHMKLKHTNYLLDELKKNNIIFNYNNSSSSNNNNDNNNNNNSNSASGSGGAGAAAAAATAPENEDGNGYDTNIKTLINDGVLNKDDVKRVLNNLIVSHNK
Assay: PBM E-score (8-mer binding enrichment) (E-score (-0.5 to 0.5)); higher = stronger / more preferred TF binding; most listed sequences are background and not binding sites
Settings: protein concentration: 200 nM; construct: GST-full length
Summary of the method: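 The E-score, a modified Wilcoxon-Mann-Whitney statistic, was computed by the Universal PBM Analysis Suite for every ungapped eight-base word pooled with its reverse complement. Scans behind it were normalised with masliner after bound GST-tagged yeast transcription factors were detected with fluorescent anti-GST. The proteins, at about 100-200 nM, had been applied to universal all-10-mer Agilent arrays made double-stranded by primer extension.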

Sequence	PBM E-score
CGTACCAG	0.00438
TTGGACAA	0.0838
ATGGTAAT	0.129
AGATCGTA	-0.0718
AACCATGG	-0.146
AGCCACGG	-0.23
ATTCGAGG	-0.135
CTCAACAA	0.238
CCAGAGGG	-0.161
ATCTTTGG	0.0243
GATCCTAA	-0.149
AGTCTAGC	-0.344
GACATCCC	-2e-05
AATATAAA	0.103
ATATTACA	0.332
GAATCGTC	-0.134
CTTGGTAA	0.184
CGGTTGGC	-0.12
GGCAGAAC	-0.0817
ACCGCGCT	-0.13
ACTGCGGA	-0.066
ACTCTCGC	-0.102
CCGACTGC	-0.15
ACTCAGCT	-0.172
ATCTGCAA	-0.0592

Sequence	PBM E-score
AGGAACGA	0.44
CCTGTAAA	0.335
CCCTGAAA	-0.0551
AAAGCCAA	-0.0602
AGATATGG	-0.259
AGTTTCCC	-0.306
CCACGAGC	-0.167
ACTTTTAA	0.0373
CGCGAAGA	-0.0388
GATCGGGC	-0.22
GGCCCGAA	-0.201
ATGGGTTA	0.0948
CCGCTTCA	-0.167
AGAGAGAT	-0.0925
AGCACGCC	-0.114
AGGAGGTA	-0.109
GCAGACAA	0.0589
CAGACTTC	-0.0881
ATTTTAGA	-0.0785
GGTCCAAA	-0.0248
AGACCCAC	-0.0779
CCAGTCTC	-0.258
AACCTCAC	-0.115
CCACCACG	-0.169
GCCAAGCC	-0.349

Sequence	PBM E-score
ATATCATC	0.00215
CTAAACCA	-0.0323
ACTGCGCT	-0.105
TCGTACCA	-0.0952
AATGTGAA	0.116
ACGGATTA	0.163
GCCTCGAA	0.103
TAGGCCTA	0.0416
AAAGCCTG	0.0672
GCGTTGCA	-0.051
ATAGGGAC	-0.134
ATGTTCCA	0.0157
AGGCTTCA	-0.221
ACTCTGGA	-0.0159
CCTAGAAG	-0.113
CTGAATTC	0.0126
AGATAGTG	-0.0737
GCTACCAA	-0.0577
GCCGCGCC	-0.189
ACTGGAGG	-0.247
AAGGGTGG	-0.215
ATTGAGGA	-0.099
ACGTATGC	0.0428
TCTAATAA	0.181
ATATATAG	0.146

Sequence	PBM E-score
AGCCACCA	-0.18
GGCAAGAA	0.307
GGGGCACA	-0.202
GAGCAGGA	0.129
GATACGCA	0.0657
ACCCTGAA	0.074
AGCAACGA	-0.028
GTTCGCTA	0.00268
ATTCATGC	-0.0128
GATCAACC	-0.218
GTTCTTTA	0.227
TAAGAACA	0.262
ACACAGTG	0.168
TCGCTCAA	0.023
GGCGATAC	-0.207
TCGCAAAA	0.0297
TCGTTTAA	0.23
AGAATTTA	0.142
CTGGGATA	-0.119
AATGATGA	0.00977
AAGCATGA	-0.057
CCAGGGGA	-0.363
CTTACCGA	-0.224
TCGCGACA	-0.0759
GACGATGC	-0.0621

Sequence	PBM E-score
AATAACGG	-0.041
CCACCCAA	-0.226
AGCTACGG	-0.0998
TCGCGAGA	-0.12
CAAAGGAC	-0.189
ATTTTTAA	0.156
CGATGGTA	-0.133
AGTCAAGC	-0.084
ACGCGCCA	0.144
GCAACACC	0.0277
CGAAACCG	-0.162
GCCACAGA	-0.0635
CAACTATC	-0.235
AATGGGCA	0.279
CTGTGCAC	0.0162
CAACAAGG	0.277
AAAAATGA	0.0423
GCCGTTAC	-0.13
CTCCTGTC	-0.0661
ATAAGGAG	-0.0283
GGTGGCAC	-0.286
CTCCATCA	-0.148
ATGTCAAC	0.264
AGGATCCG	-0.143
TAAACACA	0.323

Sequence	PBM E-score
AGGTTCGA	0.0225
AATGATTG	0.151
ACAAAGCC	0.0921
CGGTTTAG	-0.0742
AGCAGAAT	0.059
TCCAGCAA	-0.185
AGTCGGAA	-0.143
GGGTGACA	-0.13
CTACGATA	-0.00283
GTGGCGCA	-0.0264
AGACTGTA	-0.109
ATCACGTC	0.0161
AATGAAAA	0.0669
ACTGTCGG	-0.227
AATGGTGG	-0.22
TCCTGAAA	0.0779
CCGTCCAC	-0.104
AGGTTATC	0.041
AGATCGGG	-0.295
ATAAAAGA	0.0356
GCTCTAAA	-0.0215
CCTATTCC	0.035
GCGTCGGA	0.0189
ACGCTTGG	-0.0287
CTGCTTGA	-0.0624

Sequence	PBM E-score
GAATCAGA	-0.0311
AGATAGAC	0.0786
ATATATGC	-0.0335
CAAGATTC	-0.0018
ACAGTATC	0.0766
AGCTAACT	-0.158
GACGGACC	-0.246
AGGGAACT	-0.0302
GCTATGGA	-0.332
ATGAATAA	0.0706
CTCCTTCC	-0.00162
ACGCAGAT	0.0549
CAAGGGCG	-0.0955
ATCTGGGA	-0.133
CGCGCATC	-0.214
CCAAGCCA	-0.154
AAGAAAAG	-0.00025
TCGTACAA	0.167
CACTACTG	-0.271
AATAACAA	0.166
GAAGGCCA	-0.0342
ACCATTCA	0.116
